{"source": "paper PMC4336329", "about": "(PLoS ONE, 2015)", "note": "The campaign covered roughly 310,000 compounds. About 14,000 (4.5%) showed an effect of 50% or more. The effect is printed as a negative number. Some of the results follow.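 Note: peak tail current of the secondary pulse compared with the same well before compound.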"}
{"target": "human ether-à-go-go-related gene (hERG) potassium channel (human, UniProt Q12809)", "sequence (Q12809 whole entry, looked up)": "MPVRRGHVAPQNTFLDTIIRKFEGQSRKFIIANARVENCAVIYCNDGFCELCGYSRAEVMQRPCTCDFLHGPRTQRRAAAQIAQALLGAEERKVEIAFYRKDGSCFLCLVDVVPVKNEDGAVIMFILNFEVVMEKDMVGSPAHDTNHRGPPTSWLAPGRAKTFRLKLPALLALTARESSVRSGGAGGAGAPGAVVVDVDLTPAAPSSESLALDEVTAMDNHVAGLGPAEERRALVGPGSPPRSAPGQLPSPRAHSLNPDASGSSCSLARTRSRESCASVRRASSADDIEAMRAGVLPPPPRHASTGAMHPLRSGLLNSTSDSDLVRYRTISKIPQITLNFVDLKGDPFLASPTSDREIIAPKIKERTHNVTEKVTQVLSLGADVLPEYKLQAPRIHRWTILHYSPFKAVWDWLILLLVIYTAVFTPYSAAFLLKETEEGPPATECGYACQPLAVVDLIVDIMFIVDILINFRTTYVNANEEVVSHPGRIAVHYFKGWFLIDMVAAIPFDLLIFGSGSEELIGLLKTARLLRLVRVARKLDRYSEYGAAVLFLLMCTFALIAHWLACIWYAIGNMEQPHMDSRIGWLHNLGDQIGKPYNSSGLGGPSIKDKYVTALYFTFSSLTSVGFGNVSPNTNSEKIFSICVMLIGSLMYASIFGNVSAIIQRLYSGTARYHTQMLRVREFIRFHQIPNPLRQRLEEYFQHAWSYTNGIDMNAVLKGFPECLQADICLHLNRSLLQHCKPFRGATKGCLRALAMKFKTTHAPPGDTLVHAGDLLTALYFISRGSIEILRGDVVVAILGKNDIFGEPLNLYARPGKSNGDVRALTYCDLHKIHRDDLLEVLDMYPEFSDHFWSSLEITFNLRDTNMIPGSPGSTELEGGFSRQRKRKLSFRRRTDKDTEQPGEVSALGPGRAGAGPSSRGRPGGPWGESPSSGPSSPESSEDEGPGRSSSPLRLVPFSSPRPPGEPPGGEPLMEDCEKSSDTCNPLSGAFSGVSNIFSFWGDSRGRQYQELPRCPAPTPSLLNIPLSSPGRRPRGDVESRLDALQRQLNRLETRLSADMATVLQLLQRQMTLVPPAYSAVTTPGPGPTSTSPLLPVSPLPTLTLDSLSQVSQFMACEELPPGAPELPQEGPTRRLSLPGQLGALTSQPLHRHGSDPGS", "assay": "primary screen, population patch clamp on CHO cells stably expressing hERG", "units": {"hERG current change (%, negative = inhibition) at 10uM": "%"}}
{"smiles": "Cc1cccc(CCN2C(N(C)C)=NC[C@@H]2C)c1", "hERG current change (%, negative = inhibition) at 10uM": -7.74}
{"smiles": "Cc1ccc(C(=O)Oc2ccccc2N2CCOCC2)cc1", "hERG current change (%, negative = inhibition) at 10uM": 12.2}
{"smiles": "CC1=C(C(=O)OCC2CCCO2)C(c2coc3ccccc3c2=O)C2=C(CCCC2=O)N1", "note": "(stereo not shown)", "hERG current change (%, negative = inhibition) at 10uM": -6.3}
{"smiles": "O=S(=O)(c1ccccc1)N1CC1c1ccccc1", "note": "(stereo not shown)", "hERG current change (%, negative = inhibition) at 10uM": 1.43}
{"smiles": "CCC(OC(=O)c1nsc(Cl)c1Cl)C(=O)NCc1cccs1", "note": "(stereo not shown)", "hERG current change (%, negative = inhibition) at 10uM": -14.6}
{"smiles": "COc1ccc(OC)c2[nH]c(=O)c(CCNC(=O)C(C)C)cc12", "hERG current change (%, negative = inhibition) at 10uM": 26.5}
{"smiles": "O=C(N/C(=C/c1cccnc1)C(=O)N1CCOCC1)c1ccccc1Br", "hERG current change (%, negative = inhibition) at 10uM": 20.9}
{"smiles": "CCN(CC)c1ccc(S(=O)(=O)N2CCOCC2)cc1NC(=O)CN1CCN(Cc2ccccc2)CC1.Cl", "hERG current change (%, negative = inhibition) at 10uM": -45.7}
{"smiles": "COc1cc(/C=N/NC(=O)c2ccncc2)ccc1OCCN1CCCCC1", "hERG current change (%, negative = inhibition) at 10uM": -3.37}
{"smiles": "COC(=O)c1ccccc1NC(=O)c1ccc(COc2ccccc2)o1", "hERG current change (%, negative = inhibition) at 10uM": 4.19}
{"smiles": "CN(Cc1ccccc1)C(=O)c1ccc(NC(=O)C2=CSCCO2)cc1", "hERG current change (%, negative = inhibition) at 10uM": -0.926}
{"smiles": "Cl.Nc1nc(Nc2ccc(Cl)cc2)nc2ccccc12", "hERG current change (%, negative = inhibition) at 10uM": -2.78}
{"smiles": "CC1CCN(S(=O)(=O)c2cn(CC(=O)N3CCN(c4cccc(C(F)(F)F)c4)CC3)cn2)CC1", "hERG current change (%, negative = inhibition) at 10uM": -54}
{"smiles": "CC(=O)Nc1ccc(NC(=O)C/C(C)=N/NC(=O)COc2cc(C)c(Br)cc2Br)cc1", "hERG current change (%, negative = inhibition) at 10uM": 0.722}
{"smiles": "COCCNC(=S)N/N=C1\\CC(C)CC(C)(C)C1", "note": "(stereo not shown)", "hERG current change (%, negative = inhibition) at 10uM": 6.32}
{"smiles": "COc1ccc(C(=O)NCCCN(C)CCCNC(=O)c2ccc(OC)cc2)cc1", "hERG current change (%, negative = inhibition) at 10uM": -30.5}
{"smiles": "CN(C(=O)COC(=O)c1cn(-c2ccccc2)nc1-c1ccccc1)C1CCS(=O)(=O)C1", "note": "(stereo not shown)", "hERG current change (%, negative = inhibition) at 10uM": -16.6}
{"smiles": "CCN1C(=O)[C@H]2[C@@H](c3ccc(C)cc3)N3C(=O)N(c4ccc(C(F)(F)F)cc4)C(=O)[C@@]3(Cc3ccccc3)[C@H]2C1=O", "hERG current change (%, negative = inhibition) at 10uM": 16.3}
{"smiles": "NNCCc1ccccc1.O=S(=O)(O)O", "hERG current change (%, negative = inhibition) at 10uM": 6.44}
{"smiles": "Cc1ccc(-n2c(=O)c3ccccc3n(CC(=O)NCc3ccco3)c2=O)cc1", "hERG current change (%, negative = inhibition) at 10uM": 6.23}
{"smiles": "COc1ccccc1C(=O)NC(C)C(c1cccs1)N1CCOCC1", "note": "(stereo not shown)", "hERG current change (%, negative = inhibition) at 10uM": 5.67}
{"smiles": "CCOc1ccccc1NC(=O)c1ccc2nc[nH]c2c1", "hERG current change (%, negative = inhibition) at 10uM": 19.9}
{"smiles": "CCC1Oc2nc(SC)nnc2-c2ccccc2N1C(=O)c1ccccc1", "note": "(stereo not shown)", "hERG current change (%, negative = inhibition) at 10uM": -4.97}
{"smiles": "CN1C(=O)/C(=N/OC(=O)c2ccccc2Br)c2ccccc21", "hERG current change (%, negative = inhibition) at 10uM": 12.3}
{"smiles": "O=C(COc1ccccc1)N1CCCC1", "hERG current change (%, negative = inhibition) at 10uM": 15.6}
{"smiles": "CCOC(=O)c1ccc(NC(=O)CN2CCN(Cc3ccccc3)CC2)cc1", "hERG current change (%, negative = inhibition) at 10uM": -51}
{"smiles": "COc1ccc(/C=C(\\C#N)C(=O)OCC(=O)Nc2c(C)cccc2C(C)C)cc1", "hERG current change (%, negative = inhibition) at 10uM": 16}
{"smiles": "COc1c(Cl)cc(Cl)cc1/C=N/NC(=O)c1nnn(-c2nonc2N)c1CN1CCC(C)CC1", "hERG current change (%, negative = inhibition) at 10uM": 13.1}
{"smiles": "CC(=O)Nc1ccc(S(=O)(=O)Nc2cccc3[nH]ncc23)cc1", "hERG current change (%, negative = inhibition) at 10uM": 33.1}
{"smiles": "C=CCn1c(N)cc(=O)nc1SCC(=O)Nc1ccccc1", "hERG current change (%, negative = inhibition) at 10uM": 13.4}
{"smiles": "O=C1/C(=C/c2ccc(Br)cc2)Oc2cc(O)ccc21", "hERG current change (%, negative = inhibition) at 10uM": 13.5}
{"smiles": "COC(=O)c1c(NC(=O)CCl)sc(C(=O)N2CCOCC2)c1C", "hERG current change (%, negative = inhibition) at 10uM": 6.78}
{"smiles": "CCN(CC)c1ccc(C2CC(=O)NC3=C2C(=O)CC(C)(C)C3)cc1", "note": "(stereo not shown)", "hERG current change (%, negative = inhibition) at 10uM": 4.79}
{"smiles": "COc1ccc(COc2cc(-c3cccc(OC)c3)nc3ccc(NC(=O)C(C)C)cc23)cc1", "hERG current change (%, negative = inhibition) at 10uM": 3.04}
{"smiles": "CCN(CC)c1ccc(C=C2C(=O)OC3(CCCC3)OC2=O)cc1", "hERG current change (%, negative = inhibition) at 10uM": -9.52}
{"smiles": "Cc1c(Cl)cccc1NC(=O)C1C2C=CC(C2)C1C(=O)O", "note": "(stereo not shown)", "hERG current change (%, negative = inhibition) at 10uM": 10.2}
{"smiles": "CSc1ccc(C(=O)C2CCCN(C(=O)c3cccnc3SC)C2)cc1", "note": "(stereo not shown)", "hERG current change (%, negative = inhibition) at 10uM": -32.4}
{"smiles": "CCOC(=O)C1(C/C(C)=N/NC(N)=O)CC(C)(C)OC1=O", "note": "(stereo not shown)", "hERG current change (%, negative = inhibition) at 10uM": 34.8}
{"smiles": "N/C(=N\\OC(=O)c1ccco1)c1ccccn1", "hERG current change (%, negative = inhibition) at 10uM": 24.2}
{"smiles": "COCCNC(=O)C(c1ccc(F)cc1)N(Cc1ccccc1)C(=O)CCC(=O)Nc1nccs1", "note": "(stereo not shown)", "hERG current change (%, negative = inhibition) at 10uM": 0.73}
{"smiles": "CCNC(=O)c1c(N)sc2c1CCCCC2", "hERG current change (%, negative = inhibition) at 10uM": 1.62}
{"smiles": "Cc1ccc(NC(=O)C2CCCN(c3ncnc4c3nc3n4CCCCC3)C2)cc1Cl", "note": "(stereo not shown)", "hERG current change (%, negative = inhibition) at 10uM": -6.39}
{"smiles": "CC(C)CCNC(=O)NC(=O)CN1C(=O)NC2(CCCCC2)C1=O", "hERG current change (%, negative = inhibition) at 10uM": -7.71}
